Potency data for 91 molecules are collected here from PubChem BioAssay AID360 (National Center for Advancing Translational Sciences (NCATS), 2006).

Hit rate of the full screen: of about 48,000 compounds, about 550 (1.1%) were called active. Roughly 4% stayed inconclusive and do not appear here. Rule as the data show it: active = potency below about 15 µM; inconclusive = mostly about 16 µM to 33 µM; inactive = weaker than that. This is one part of the list.
Potency is read from the fitted curve at half-maximal effect.

UniProt P04062, sequence (P04062 whole entry, looked up): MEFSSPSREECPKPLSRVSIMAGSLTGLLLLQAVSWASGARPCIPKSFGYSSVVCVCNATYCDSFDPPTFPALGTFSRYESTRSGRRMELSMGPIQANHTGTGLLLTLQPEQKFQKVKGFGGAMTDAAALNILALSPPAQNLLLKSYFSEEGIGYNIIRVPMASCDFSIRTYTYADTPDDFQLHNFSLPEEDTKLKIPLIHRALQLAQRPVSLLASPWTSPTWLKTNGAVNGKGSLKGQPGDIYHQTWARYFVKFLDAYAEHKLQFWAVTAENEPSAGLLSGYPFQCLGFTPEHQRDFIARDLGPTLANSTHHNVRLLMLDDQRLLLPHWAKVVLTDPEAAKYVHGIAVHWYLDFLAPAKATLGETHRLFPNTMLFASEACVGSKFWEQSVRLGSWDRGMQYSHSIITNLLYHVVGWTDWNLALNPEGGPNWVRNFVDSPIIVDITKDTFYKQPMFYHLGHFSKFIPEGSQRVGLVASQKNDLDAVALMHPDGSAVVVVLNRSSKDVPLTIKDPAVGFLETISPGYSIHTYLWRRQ

The assay has as its target Lysosomal acid glucosylceramidase (Homo sapiens) (UniProt P04062). The experiment in a line: Glucocerebrosidase.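 Also: the screen sought inhibitors.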 The following applies: purified enzyme, resorufin glucoside fluorescence (screen aimed at inhibitors), 20 min. In a few lines:
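Compounds titrated against 0.2 nM normal enzyme, 30 uM resorufin beta-D-glucopyranoside substrate, citrate/phosphate buffer with taurocholate and tween-20, pH 5.9. Reaction ran 20 min at room temperature; fluorescence (Ex 548/Em 600) gave AC50.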
In the case of `Cn1c(=O)n(C)c2cc(C(=O)O)ccc21`, the Potency is inactive: > 76.9 µM.

Take `COCCn1nnnc1C(c1cc(OC)ccc1OC)N1CCc2ccccc2C1` (stereo unspecified): the Potency is inactive: > 76.9 µM.

As for `Cc1cc(C)n(-c2nc3c(c(=O)n(Cc4ccc(Cl)c(Cl)c4)c(=O)n3C)n2C)n1`, the Potency is inactive: > 76.9 µM.

Consider `C=CCn1c(N)c(C(=O)NC2CCCCC2)sc1=S`, for which the Potency is inactive: > 76.9 µM.

With `O=S(=O)(c1cc(F)cc(F)c1)N1CCN(c2ncccn2)CC1`, the Potency is inactive: > 76.9 µM.

For the molecule `O=C(c1ccco1)N1CCN(C(=O)c2cnn3c2NC(c2cccs2)CC3C(F)(F)F)CC1` (stereo unspecified), the Potency was inactive: > 76.9 µM.

For the molecule `CC1CCCN(C(=O)CSc2nnc(-c3cccnc3)n2C2CCCCC2)C1` (stereo unspecified), the Potency is inactive: > 76.9 µM.

Regarding `CCC(C)Sc1nc2c(c(=O)[nH]c(=O)n2C)n1C` (stereo unspecified), the Potency was inactive: > 76.9 µM.

Regarding `O=C(CSc1ncn[nH]1)N1CCN(c2nnc(-c3ccccc3)c3ccccc23)CC1`, the Potency was inactive: > 76.9 µM.

As for `CN1CCN(C(=O)CCn2nc(-c3ccccc3)c3ccccc3c2=O)CC1`, the Potency was inactive: > 76.9 µM.

As for `O=C1C2ON(c3ccc(Br)cc3)C(c3cccnc3)C2C(=O)N1C1CCCCC1` (stereo unspecified), the Potency was inactive: > 76.9 µM.

As for `CCOC(=O)c1cc2n(n1)C(C(F)(F)C(F)(F)F)CC(C)N2` (stereo unspecified), the Potency was inactive: > 76.9 µM.

Take `CCn1cc(C(=O)NCc2ccco2)c(=O)c2cc(S(=O)(=O)N3CCc4ccccc4C3)ccc21`: the Potency is inactive: > 76.9 µM.

For `CC(=O)N1CCc2cc(S(=O)(=O)NCCN3CCC(C)CC3)ccc21`, the Potency was inactive: > 76.9 µM.

In the case of `Cc1ccc2[nH]c(=O)c(CN(CC3CCCO3)C(=O)c3ccncc3)cc2c1` (stereo unspecified), the Potency is inactive: > 76.9 µM.

As to `O=C(Nc1ccc(-n2nncc2-c2ccco2)cc1)c1cccc(F)c1`, the Potency was inactive: > 76.9 µM.

Regarding `COc1ccc(CN2CC(C(=O)N3CCOCC3)CC2=O)cc1` (stereo unspecified), the Potency is inactive: > 76.9 µM.

Consider `COc1ccc(O)c(/C=c2/sc3nc4cc(C)c(C)cc4n3c2=O)c1`, for which the Potency is inactive: > 76.9 µM.

Consider `COc1ccc(CCNC(=O)C2CCN(S(=O)(=O)N3CCCCC3)CC2)cc1OC`, for which the Potency was inactive: > 76.9 µM.

For the molecule `O=C1c2sc3nc4ccccc4n3c2C(=O)N1c1ccccc1Cl`, the Potency is inactive: > 76.9 µM.

In the case of `COc1ccc(NC(=O)CCOc2ccccc2)c(OC)c1`, the Potency is inactive: > 76.9 µM.

In the case of `CCCCn1c(SCC(=O)N2CCC(C(=O)OCC)CC2)nc2cc(S(N)(=O)=O)ccc21`, the Potency is inactive: > 76.9 µM.

Consider `O=C(O)CCC(=O)NC1CCCCCCC1`, for which the Potency is inactive: > 76.9 µM.

`c1ccc(CCn2nnnc2CN2CCN(C3CCCC3)CC2)cc1`: the Potency is inactive: > 76.9 µM.

On to `COC(=O)c1[nH]c2cccc(OC)c2c1NC(=O)CCN1CCN(c2ccccc2F)CC1`, for which the Potency was inactive: > 76.9 µM.

On to `O=C(Nc1ccc(OC(=O)c2ccco2)cc1)c1ccco1`, for which the Potency was inactive: > 76.9 µM.

Consider `CCOC(=O)c1ccc(NC(=O)CSc2nnc(CNC(=O)c3ccccc3F)o2)cc1`, for which the Potency was inactive: > 76.9 µM.

Consider `CSCCC(NC(N)=O)C(=O)NCc1ccccc1Cl` (stereo unspecified), for which the Potency was inactive: > 76.9 µM.

For `O=c1[nH]nnc2sc3c(c12)CCCC3`, the Potency was inactive: > 76.9 µM.

On to `COc1ccc(NC(=O)Nc2ccc(C(=O)N3CCOCC3)cc2)cc1`, for which the Potency is inactive: > 76.9 µM.

Consider `CSc1nnc(-c2ccc(S(=O)(=O)N3CCOCC3)cc2)n1CC1CCCO1` (stereo unspecified), for which the Potency is inactive: > 76.9 µM.

As for `CS(=O)(=O)N(CCC(=O)O)Cc1ccccc1`, the Potency was inactive: > 76.9 µM.

Consider `COc1ccc2nc(SCC(=O)Nc3ccc4c(c3)OCCO4)[nH]c2c1`, for which the Potency was inactive: > 76.9 µM.

Consider `COc1ccc2cc3cc(C(=O)NCCCN4CCOCC4)oc3nc2c1`, for which the Potency was inactive: > 76.9 µM.

Regarding `COc1ccc(N2CCN(c3oc(COc4ccc(Cl)cc4Cl)nc3C#N)CC2)cc1`, the Potency is inactive: > 76.9 µM.

For `COc1cccc(-c2nc(CC(=O)O)cs2)c1OC`, the Potency is inactive: > 76.9 µM.

As for `Cc1c(C(=O)NC2CCCc3ccccc32)oc2ccc(S(=O)(=O)N3CCOCC3)cc12` (stereo unspecified), the Potency is inactive: > 76.9 µM.

On to `CCOC(=O)C1Cc2cc3c(cc2C1=O)CC(C(=O)OCC)C3=O` (stereo unspecified), for which the Potency is inactive: > 76.9 µM.

With `COc1nc(OC)nc(N2CCC(C(=O)Nc3cccc4ccccc34)CC2)n1`, the Potency was inactive: > 76.9 µM.

As for `O=C(C1CCC1)N1CCc2cc(S(=O)(=O)N3CCCCC3)ccc21`, the Potency was inactive: > 76.9 µM.

In the case of `Cc1cccc(-c2nsc(SCC(=O)Nc3nccs3)n2)c1`, the Potency was inactive: > 76.9 µM.

For `CCOC(=O)c1c(C)oc2c(F)c(F)c(F)c(F)c2c1=O`, the Potency was inactive: > 76.9 µM.

Turning to `CCC(=O)c1ccccc1OCCCn1cncn1`, the Potency was inactive: > 76.9 µM.

With `Cc1cc(C)c(NC(=O)CSc2nnc(-c3ccncc3)n2Cc2ccco2)c(C)c1`, the Potency was inactive: > 76.9 µM.

On to `CCOC(=O)C1=C(C)N=c2s/c(=C\c3ccncc3)c(=O)n2C1c1ccc2c(c1)OCO2` (stereo unspecified), for which the Potency was inactive: > 76.9 µM.

As for `O=C(CS(=O)CC(=O)N(CC(=O)NC1CCCC1)C1CCCCC1)Nc1ccc(F)cc1` (stereo unspecified), the Potency was inactive: > 76.9 µM.

As to `Clc1ccccc1-c1nc(-c2cccnc2)no1`, the Potency entry was “inactive”.

For the molecule `COc1ccc2c(c1)c(C(O)CN1CCN(Cc3ccc4c(c3)OCO4)CC1)c(C)n2C` (stereo unspecified), the Potency is inactive: > 76.9 µM.

For the molecule `Cc1cc(C)n(C2=NS(=O)(=O)c3ccccc32)n1`, the Potency is inactive: > 76.9 µM.

`COc1ccc2c(C)nc(Nc3nc(C)cc(=O)[nH]3)nc2c1`: the Potency was inactive: > 76.9 µM.

On to `COc1cccc(OCc2nc3c4cnn(-c5ccccc5)c4ncn3n2)c1`, for which the Potency was inactive: > 76.9 µM.

As to `CS(=O)(=O)Nc1ccc(C(=O)NCc2ccc3c(c2)OCO3)cc1`, the Potency was inactive: > 76.9 µM.

`O=C(O)c1cccc(CSc2nnc(COc3ccccc3)o2)c1`: the Potency is inactive: > 76.9 µM.

As to `O=C(CSc1nc2ccccc2c(=O)n1Cc1ccco1)NCc1ccccc1`, the Potency was inactive: > 76.9 µM.

Regarding `CSc1ccc(C2C3(C#N)C(N)=NC4(OCCO4)C23C#N)cc1` (stereo unspecified), the Potency was inactive: > 76.9 µM.

`CC(NO)C(C)(C)NO` (stereo unspecified): the Potency is inactive: > 76.9 µM.

Consider `CC1(C)N([O-])C(c2cccs2)=C[N+]1=O`, for which the Potency was inactive: > 76.9 µM.

For the molecule `O=C(N1CCOCC1)N1CCN(c2nc(-c3ccc(F)cc3)cs2)CC1`, the Potency was inactive: > 76.9 µM.

On to `CN(c1ccccc1C(N)=O)S(=O)(=O)c1ccccc1`, for which the Potency is inactive: > 76.9 µM.

In the case of `CCN(CC)C(=O)CC(c1ccc(F)cc1)c1ccco1` (stereo unspecified), the Potency is inactive: > 76.9 µM.

Take `CCn1c2ccccc2c2cc(NC(=O)Cc3ccc(S(=O)(=O)N4CCOCC4)s3)ccc21`: the Potency was inactive: > 76.9 µM.

Turning to `COc1cc(C)c(S(=O)(=O)N2CCN(C)CC2)cc1C`, the Potency is inactive: > 76.9 µM.

For the molecule `CC(=O)N1CCC2(CC1)C(C#N)=C(N)Oc1n[nH]c(C)c12`, the Potency was inactive: > 76.9 µM.

Consider `O=C(N1CCOCC1)N(Cc1ccco1)CC1CCCO1` (stereo unspecified), for which the Potency is inactive: > 76.9 µM.

For `CCSc1ccccc1C(=O)NCCCn1ccnc1`, the Potency was inactive: > 76.9 µM.

With `O=C(OCC(=O)N1CCN(C(=O)c2ccco2)CC1)c1cc(-c2ccccc2)nc2ccccc12`, the Potency was inactive: > 76.9 µM.

Take `CCCCOc1ccc(-c2nnn(C(C)C(=O)OCC)n2)cc1` (stereo unspecified): the Potency is inactive: > 76.9 µM.

Turning to `COc1cc(OC)cc(C(=O)NCC(=O)N2CCCCC2)c1`, the Potency was inactive: > 76.9 µM.

On to `CS(=O)(=O)c1ccc2nc(NC(=O)C3C4C=CC(C4)C3C(=O)O)sc2c1` (stereo unspecified), for which the Potency was inactive: > 76.9 µM.

With `CC1CCCN(C(C(=O)Nc2ccc3c(c2)OCCO3)c2ccccc2)C1` (stereo unspecified), the Potency was inactive: > 76.9 µM.

For `O=C(Cc1ccc(-n2cccc2)cc1)NC1CCCCC1`, the Potency was inactive: > 76.9 µM.

Consider `CSc1ccccc1NS(=O)(=O)c1ccc2c(c1)OCCO2`, for which the Potency is inactive: > 76.9 µM.

Consider `O=C(OCC(=O)N1CCOCC1)c1ccccc1SCC(=O)N1CCCC1`, for which the Potency is inactive: > 76.9 µM.

For the molecule `Nc1nnc(SCC(=O)N2CCN(c3ccccc3)CC2)n1-c1ccccc1`, the Potency was inactive: > 76.9 µM.

`CC(=O)NC(CCS(C)(=O)=O)C(=O)Nc1ccc(C)c(F)c1` (stereo unspecified): the Potency is inactive: > 76.9 µM.

For `Cc1c2c(nc3c(C)cccc13)OC(C)C2` (stereo unspecified), the Potency is inactive: > 76.9 µM.

For the molecule `Cc1ccccc1N=C1Nc2ccccc2CS1`, the Potency is inactive: > 76.9 µM.

For `COc1ccccc1N1CCN(C(=O)c2cc(-c3ccc(C)cc3)on2)CC1`, the Potency was inactive: > 76.9 µM.

For the molecule `O=C(COc1ccc(Cl)cc1Cl)NC(=O)N1CCOCC1`, the Potency was inactive: > 76.9 µM.

Take `O=c1cc(CNC2CCCCC2)c2ccccc2[nH]1`: the Potency was inactive: > 76.9 µM.

Regarding `CC(C)CNC(=O)CN(C1CCCCC1)S(C)(=O)=O`, the Potency was inactive: > 76.9 µM.

For `O=C(CNC(=O)c1ccco1)OCc1ccc(C(=O)Oc2ccccc2)cc1`, the Potency is inactive: > 76.9 µM.

On to `COc1ccc2oc(C)c(C(=O)Cn3ccnc3)c2c1`, for which the Potency entry was “inactive”.

On to `CCn1c(=O)cc(SCC(=O)Nc2cccnc2)c2ccccc21`, for which the Potency is inactive: > 76.9 µM.

Turning to `CCOC(=O)c1nc(S(C)(=O)=O)ncc1Cl`, the Potency is inactive: > 76.9 µM.

Turning to `CCC1(C)Cc2c(sc3nc(SCC(=O)O)[nH]c(=O)c23)CO1` (stereo unspecified), the Potency is inactive: > 76.9 µM.

In the case of `CN(C(=O)c1cc2n(n1)C(C(F)(F)F)CC(c1ccco1)N2)c1ccc(OC(F)(F)F)cc1` (stereo unspecified), the Potency is inactive: > 76.9 µM.

Take `Cc1cc(C)c(C#N)c(SCC(=O)Nc2nnc(-c3ccccc3)s2)n1`: the Potency was inactive: > 76.9 µM.

As to `COc1cccc(OC)c1C(=O)Nc1ccc(N2CCN(S(C)(=O)=O)CC2)cc1`, the Potency is inactive: > 76.9 µM.

Take `COc1ccccc1OCc1nnc(SCC(=O)Nc2ccc(C)cc2)n1C`: the Potency is inactive: > 76.9 µM.

On to `CCOC(=O)c1c(NC(=O)CSc2nc3c(c(=O)n(C)c(=O)n3C)n2C(C)C)sc(C)c1C`, for which the Potency was inactive: > 76.9 µM.
